Data: patent publication US20230255200A1, “USE OF STROBILURIN TYPE COMPOUNDS FOR COMBATING PHYTOPATHOGENIC FUNGI CONTAINING AN AMINO ACID SUBSTITUTION F129L IN THE MITOCHONDRIAL CYTOCHROME B PROTEIN CONFERRING RESISTANCE TO QO […]” (BASF SE, priority 2020, published 2023)
The name of at least one read-out is uncertain.

Key:
[1] = tested on: Phakopsora pachyrhizi containing the amino acid substitution F129L in the mitochondrial cytochrome b protein; assay: Protective control of soybean rust on soybeans caused by Phakopsora pachyrhizi (PHAKPA P6), inoculation six days after spraying; format: in vivo; details: inoculated six days after treatment, F129L strain
[2] = tested on: Phakopsora pachyrhizi containing the amino acid substitution F129L in the mitochondrial cytochrome b protein; assay: Protective control of soybean rust on soybeans caused by Phakopsora pachyrhizi (PHAKPA P2), inoculation 2 days after spraying; format: in vivo; details: inoculated 2 days after treatment, F129L strain
[3] = Table 1, % diseased leaf area on soybean, 4 ppm spray
[4] = Table 1, % diseased leaf area on soybean, 16 ppm spray
[5] = Table C1 comparative trial, % diseased leaf area, 4 ppm
[6] = Table C1 comparative trial, % diseased leaf area, 16 ppm

| Compound | PHAKPA (F129L) Disease level (%) P6 at 4 ppm [1, 3] | PHAKPA (F129L) Disease level (%) P6 at 16 ppm [1, 4] | PHAKPA (F129L) Disease level (%) P2 at 4 ppm [2, 3] | PHAKPA (F129L) Disease level (%) P2 at 16 ppm [2, 4] | PHAKPA (F129L) Disease level (%) P6 at 4 ppm [1, 5] | PHAKPA (F129L) Disease level (%) P6 at 16 ppm [1, 6] | PHAKPA (F129L) Disease level (%) P2 at 4 ppm [2, 5] | PHAKPA (F129L) Disease level (%) P2 at 16 ppm [2, 6] |
| --- | --- | --- | --- | --- | --- | --- | --- | --- |
| CO/N=C(/C(=O)OC)c1cccc(C)c1CO/N=C1\CCc2ccccc21 [Compound 1, Methyl (2E)-2-[2-[[(E)-indan-1-ylideneamino]oxymethyl]-3-methyl-phenyl]-2-methoxyimino-acetate] | 25% | 1% | 28% | 8% | – | – | – | – |
| CNC(=O)/C(=N/OC)c1cccc(C)c1CO/N=C1\CCc2ccccc21 [Compound 2, (2E)-2-[2-[[(E)-indan-1-ylideneamino]oxymethyl]-3-methyl-phenyl]-2-methoxyimino-N-methyl-acetamide] | 42% | 12% | 6% | 1% | – | – | – | – |
| CO/N=C(/C(=O)OC)c1cccc(C)c1CO/N=C1\CCCc2ccccc21 [Compound 3, Methyl (2E)-2-methoxyimino-2-[3-methyl-2-[[(E)-tetralin-1-ylideneamino]oxymethyl]-phenyl]acetate] | 100% | 90% | 100% | 100% | – | – | – | – |
| CNC(=O)/C(=N/OC)c1cccc(C)c1CO/N=C1\CCCc2ccccc21 [Compound 4, (2E)-2-methoxyimino-N-methyl-2-[3-methyl-2-[[(E)-tetralin-1-ylideneamino]oxymethyl]phenyl]acetamide] | 87% | 32% | 90% | 7% | – | – | – | – |
| CO/N=C(/C(=O)OC)c1cccc(C)c1CO/N=C1\CCc2ccc(F)cc21 [Compound 5] | 40% | 1% | 30% | 3% | – | – | – | – |
| CNC(=O)/C(=N/OC)c1cccc(C)c1CO/N=C1\CCc2ccc(F)cc21 [Compound 6] | 20% | 0% | 3% | 0% | – | – | – | – |
| CO/N=C(/C(=O)OC)c1cccc(C)c1CO/N=C1\CCc2ccc(C(F)(F)F)cc21 [Compound 7] | 30% | 5% | 25% | 10% | 25% | 4% | 27% | 9% |
| CNC(=O)/C(=N/OC)c1cccc(C)c1CO/N=C1\CCc2ccc(C(F)(F)F)cc21 [Compound 8] | 5% | 0% | 1% | 0% | – | – | – | – |
| CO/N=C(/C(=O)OC)c1cccc(C)c1CO/N=C1\CCc2cc(F)ccc21 [Compound 9] | 90% | 20% | 40% | 7% | – | – | – | – |
| CNC(=O)/C(=N/OC)c1cccc(C)c1CO/N=C1\CCc2cc(F)ccc21 [Compound 10] | 90% | 25% | 25% | 1% | – | – | – | – |
| CO/N=C(/C(=O)OC)c1cccc(C)c1CO/N=C1\CCc2c(Br)cccc21 [Compound 12] | 100% | 100% | 100% | 97% | – | – | – | – |
| CO/N=C(/C(=O)OC)c1cccc(C)c1CO/N=C1\CCc2c(F)cc(F)cc21 [Compound 13] | 83% | 20% | 53% | 8% | – | – | – | – |
| CO/N=C(/C(=O)OC)c1cccc(C)c1CO/N=C1\CCOc2cc(F)ccc21 [Compound 15, Methyl (2E)-2-[2-[[(E)-(7-fluorochroman-4-ylidene)amino]oxymethyl]-3-methylphenyl]-2-methoxyimino-acetate] | 90% | 25% | 80% | 25% | – | – | – | – |
| CNC(=O)/C(=N/OC)c1cccc(C)c1CO/N=C1\CCOc2cc(F)ccc21 [Compound 16, (2E)-2-[2-[[(E)-(7-fluorochroman-4-ylidene)amino]oxymethyl]-3-methyl-phenyl]-2-methoxyimino-N-methyl-acetamide] | 22% | 0% | 17% | 2% | – | – | – | – |
| CNC(=O)/C(=N/OC)c1cccc(C)c1CO/N=C1\CCc2c(F)cc(F)cc21 [Compound 17] | 25% | 4% | 26% | 8% | – | – | – | – |
| CNC(=O)/C(=N/OC)c1cccc(C)c1CO/N=C1\CCc2c(Br)cccc21 [Compound 18] | 90% | 73% | 67% | 27% | – | – | – | – |
| CNC(=O)/C(=N/OC)c1cccc(C)c1CO/N=C1\CC(C)(C)c2ccccc21 [Compound 19, (2E)-2-[2-[[(E)-(3,3-dimethylindan-1-ylidene)amino]oxymethyl]-3-methyl-phenyl]-2-methoxyimino-N-methyl-acetamide] | 100% | 100% | 100% | 90% | – | – | – | – |
| CO/N=C(/C(=O)OC)c1cccc(C)c1CO/N=C1\CCc2c(Cl)cccc21 [Compound 20] | 100% | 93% | 97% | 70% | – | – | – | – |
| CO/N=C(/C(=O)OC)c1cccc(C)c1CO/N=C1\CCc2c(OC)cccc21 [Compound 21] | 36% | 11% | 31% | 4% | – | – | – | – |
| CNC(=O)/C(=N/OC)c1cccc(C)c1CO/N=C1\CCc2ccc(Br)cc21 [Compound 22, (2E)-2-[2-[[(E)-(6-bromoindan-1-ylidene)amino]oxymethyl]-3-methyl-phenyl]-2-methoxyimino-N-methyl-acetamide] | 37% | 10% | 22% | 6% | – | – | – | – |
| CO/N=C(/C(=O)OC)c1cccc(C)c1CO/N=C1\CCc2c(F)cccc21 [Compound 23] | 70% | 32% | 53% | 18% | – | – | – | – |
| CO/N=C(/C(=O)OC)c1cccc(C)c1CO/N=C1\CCc2cc(Br)ccc21 [Compound 25, Methyl (2E)-2-[2-[[(E)-(4-bromoindan-1-ylidene)amino]oxymethyl]-3-methylphenyl]-2-methoxyimino-acetate] | 93% | 60% | 57% | 32% | – | – | – | – |
| CO/N=C(/C(=O)OC)c1cccc(C)c1CO/N=C1\CCc2c(C)cccc21 [Compound 26] | 90% | 83% | 80% | 57% | – | – | – | – |
| CNC(=O)/C(=N/OC)c1cccc(C)c1CO/N=C1\CCc2c(F)cccc21 [Compound 27] | 67% | 10% | 13% | 1% | – | – | – | – |
| CNC(=O)/C(=N/OC)c1cccc(C)c1CO/N=C1\CCc2c1cc(F)cc2C(F)(F)F [Compound 28, (2E)-2-[2-[[(E)-[6-fluoro-4-(trifluoromethyl)indan-1-ylidene]amino]oxymethyl]-3-methyl-phenyl]-2-methoxyimino-N-methyl-acetamide] | 100% | 100% | 70% | 100% | – | – | – | – |
| CNC(=O)/C(=N/OC)c1cccc(C)c1CO/N=C1\CCc2cc(Br)ccc21 [Compound 29] | 70% | 22% | 37% | 8% | – | – | – | – |
| CNC(=O)/C(=N/OC)c1cccc(C)c1CO/N=C1\CCc2c(C)cccc21 [Compound 30] | 93% | 32% | 47% | 3% | – | – | – | – |
| CNC(=O)/C(=N/OC)c1cccc(C)c1CO/N=C1\CCc2c(OC)cccc21 [Compound 31] | 35% | 1% | 3% | 0% | – | – | – | – |
| CNC(=O)/C(=N/OC)c1cccc(C)c1CO/N=C1\CCc2c(Cl)cccc21 [Compound 32] | 53% | 4% | 23% | 3% | – | – | – | – |
